# Among all 220,000 compounds or so, about 5,700 (2.6%) were called active. This list was built around the results that the source calls inconclusive (neither active nor inactive); the mix of calls is not that of the screen. The call rests on the fitted dose curve; in most records, active means well fitted inhibition curve with a large enough effect; inconclusive means small, poorly fitted or top-dose-only effect; inactive means no such curve, though single readings can be large or run the other way. Potencies beside an inconclusive call are fits to weak or partial responses and may not hold up.
# Target: Lysine-specific demethylase 5B (Homo sapiens) (UniProt Q9UGL1)
# Test: Primary screen for KDM5B Histone Demethylases FDH-coupled qHTS; further: nearly all actives have a fitted effect of over 70% in size; on activity change, negative = inhibition: 0% is about no effect
# Settings: FDH-coupled NADH fluorescence (FDH is formaldehyde dehydrogenase); activity change, negative = inhibition: at 57.7 µM (top of the series) unless noted
# Method in brief: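 Coupled FDH/NAD⁺ fluorescence readout. KDM5BΔAP 200 nM final; compound titration, 10 min RT preincubation; substrate mix 12.5 µM H3K4me3, 25 µM 2-OG, 50 µM Fe(II), 100 µM ascorbate, 0.25 mM NAD⁺, 0.25 U/mL FDH; ΔRFU over 30 min.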
# Potency means the concentration at half of the fitted maximal effect; tags describe the fitted curve by direction and shape.
# Chain of UniProt Q9UGL1 (Q9UGL1 whole entry, looked up): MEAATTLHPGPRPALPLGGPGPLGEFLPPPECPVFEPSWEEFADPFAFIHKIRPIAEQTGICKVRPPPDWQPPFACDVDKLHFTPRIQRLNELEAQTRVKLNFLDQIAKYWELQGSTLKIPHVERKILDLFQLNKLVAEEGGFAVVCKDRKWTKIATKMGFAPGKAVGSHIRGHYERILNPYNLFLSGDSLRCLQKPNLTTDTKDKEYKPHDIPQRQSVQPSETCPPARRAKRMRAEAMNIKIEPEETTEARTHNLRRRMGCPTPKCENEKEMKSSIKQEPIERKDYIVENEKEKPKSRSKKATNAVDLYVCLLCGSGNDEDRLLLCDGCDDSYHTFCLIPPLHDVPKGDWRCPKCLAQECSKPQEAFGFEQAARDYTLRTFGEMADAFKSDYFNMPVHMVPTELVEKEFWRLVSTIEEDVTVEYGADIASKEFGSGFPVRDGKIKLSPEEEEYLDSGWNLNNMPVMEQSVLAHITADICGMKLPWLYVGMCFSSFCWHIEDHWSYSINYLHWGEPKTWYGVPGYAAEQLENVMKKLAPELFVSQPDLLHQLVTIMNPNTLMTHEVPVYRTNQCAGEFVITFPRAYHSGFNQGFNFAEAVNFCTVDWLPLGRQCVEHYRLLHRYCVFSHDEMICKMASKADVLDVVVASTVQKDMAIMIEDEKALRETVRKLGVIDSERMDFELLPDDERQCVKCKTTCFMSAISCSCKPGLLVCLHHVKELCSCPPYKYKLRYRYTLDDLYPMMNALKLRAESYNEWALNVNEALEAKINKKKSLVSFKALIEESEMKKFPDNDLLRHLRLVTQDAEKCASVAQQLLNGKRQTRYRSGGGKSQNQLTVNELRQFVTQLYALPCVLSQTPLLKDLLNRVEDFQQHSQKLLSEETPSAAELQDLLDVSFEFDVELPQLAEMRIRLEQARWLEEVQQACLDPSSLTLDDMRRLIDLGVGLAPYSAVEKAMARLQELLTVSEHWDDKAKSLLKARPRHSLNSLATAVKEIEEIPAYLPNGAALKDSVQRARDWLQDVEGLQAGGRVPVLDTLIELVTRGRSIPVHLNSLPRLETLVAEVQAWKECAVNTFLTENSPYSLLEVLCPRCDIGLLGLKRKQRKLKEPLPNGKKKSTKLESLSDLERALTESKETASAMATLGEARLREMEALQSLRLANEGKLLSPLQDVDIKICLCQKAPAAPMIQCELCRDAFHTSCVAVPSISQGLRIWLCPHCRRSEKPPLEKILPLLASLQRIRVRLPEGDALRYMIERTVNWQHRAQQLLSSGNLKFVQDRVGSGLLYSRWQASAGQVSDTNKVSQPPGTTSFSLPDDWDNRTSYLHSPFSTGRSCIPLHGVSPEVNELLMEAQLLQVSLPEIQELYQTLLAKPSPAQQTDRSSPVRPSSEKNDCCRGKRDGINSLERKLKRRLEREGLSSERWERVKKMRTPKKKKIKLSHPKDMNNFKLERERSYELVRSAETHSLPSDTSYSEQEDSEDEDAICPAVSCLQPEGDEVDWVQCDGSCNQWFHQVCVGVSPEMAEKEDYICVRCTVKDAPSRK
SMILES,"activity change, negative = inhibition",Potency
COc1ccc(Nc2nc(C)c(NC(=O)c3cccc(C)c3)c(Nc3ccc(OC)cc3)n2)cc1,inactive: -15%,
COc1cccc(NC(=O)c2oc3ccc(S(=O)(=O)N(C)C4CCCCC4)cc3c2C)c1,,"inconclusive: 35.5 µM [inhibitor, partial curve, poor fit]"
CC1CCN(C(=O)C(C)Nc2ccc3oc(C4CC4)nc3c2)CC1 (configuration not stated),,"inconclusive: 39.8 µM [inhibitor, single point]"
CC(C)c1cc(C(=O)N2CCN(c3ncccc3C#N)CC2)n(C)n1,,active: 31.6 µM
Cc1ccc(Cl)c2sc(NC(=O)c3ccc(S(=O)(=O)N4CCCC4)cc3)nc12,,"inconclusive: 8.91 µM [inhibitor, partial curve, poor fit]"
COC(=O)c1ccc(NC(=O)C2=Cc3ccccc3OC=C2)cc1,,"inconclusive: 1.78 µM [inhibitor, partial curve, poor fit]"
O=C(COc1c(Cl)cccc1Cl)Nc1cccc2cccnc12,inactive: 12.4%,
CCOc1ccc(C(=O)N2CC(=O)Nc3ccc(C)cc3C2c2ccc(F)cc2)cc1OCC (configuration not stated),,"inconclusive: 8.91 µM [inhibitor, partial curve, poor fit]"
N#Cc1ccc(CN2CCCC3(COc4ccccc4C(=O)N3)C2)cc1 (configuration not stated),,active: 35.5 µM
Cc1nc(CN2C[C@H](C(=O)Nc3cccc(F)c3)C[C@@H]2c2ccc(F)cc2)cs1,,"inconclusive: 39.8 µM [inhibitor, partial curve, poor fit]"
Cn1c(C(=O)Nc2ccc(N3CCOCC3)cc2)cc2c1CCN(Cc1ccccc1)C2,,"inconclusive: 39.8 µM [inhibitor, single point]"
CCC(O)CNC(=O)c1cnn2cc(CN(CC)CC)cnc12 (configuration not stated),,"inconclusive: 35.5 µM [inhibitor, partial curve, poor fit]"
COc1cc(C#N)cc(Cl)c1OCc1ccccc1C#N,inactive: 19.9%,
NS(=O)(=O)c1cccc(NC(=O)c2cn(Cc3ccccc3)nc2-c2ccccc2)c1,inactive: -3.38%,
Cc1cc(Cl)ccc1NC(=O)CSc1nc2cc([N+](=O)[O-])ccc2o1,inactive: -15.4%,
CC(=O)c1ccc(N2CCN(C(=O)Nc3ccc(C)cc3)CC2)cc1,,"inconclusive: 8.91 µM [inhibitor, partial curve, poor fit]"
O=C(CCC1CCN(S(=O)(=O)c2cccc(F)c2)CC1)NC1CC1,inactive: 23.9%,
Cc1ccc(Nc2c(-c3ccc(N4CCOCC4)cc3)nc3ccc(C)cn23)cc1,,"inconclusive: 12.6 µM [inhibitor, partial curve, poor fit]"
CCn1ncc(N2CCCC(CC(=O)NC3CCCCC3)C2)cc1=O (configuration not stated),inactive: 11.3%,
Cc1csc(Nc2ccc3ncn(Cc4ccccn4)c(=O)c3n2)n1,,"inconclusive: 56.2 µM [inhibitor, single point]"
Cc1cccc(NC(=O)CCn2cnnn2)c1,inactive: -6.3%,

SMILES,"activity change, negative = inhibition",Potency
CCc1ccc(NC(=O)Cn2c(=O)c3cccn3c3ccccc32)cc1,,"inconclusive: 28.2 µM [inhibitor, partial curve, poor fit]"
O=C(NC1CCN(c2cc(-c3ccccc3)[nH]n2)CC1)c1ccsc1,,"inconclusive: 7.08 µM [inhibitor, partial curve]"
CCc1cccc(C)c1NC(=O)CN1CCN(Cc2ccccc2Cl)S1(=O)=O,inactive: 4.62%,
COc1ccc(-c2ccccc2)cc1N1C(=O)[C@@H]2C[C@H]1CN2C(=O)[C@H](N)C(C)C,inactive: -29.2%,
O=C(Nc1nc(-c2ccc(Cl)s2)cs1)c1ccc(F)cc1,,"inconclusive: 25.1 µM [inhibitor, single point]"
O=C(Nc1ccc(-c2nc3cc(Cl)ccc3o2)cc1)c1cc(Br)ccc1Cl,,"inconclusive: 31.6 µM [inhibitor, partial curve, poor fit]"
Cc1cc(C)cc(C(=O)NCCn2cccc2-c2nc(-c3ccc4c(c3)OCO4)no2)c1,,"inconclusive: 31.6 µM [inhibitor, single point]"
O=C(Nc1ccc(C(F)(F)F)cc1)c1cc(N2C(=O)CCS2(=O)=O)ccc1Cl,inactive: 9.24%,
CCOC(=O)c1cc(-c2ccccc2)n(CCCC(=O)Nc2ccc(C)c(Cl)c2)c1C,,"inconclusive: 17.8 µM [inhibitor, partial curve, poor fit]"
CCc1cccc(NC(=O)c2cnc(N3CCOCC3)c3ccccc23)c1,,"inconclusive: 31.6 µM [inhibitor, single point]"
CCOc1ccccc1C(=O)Nc1c(C(=O)N2CCN(Cc3ccccc3)CC2)oc2ccccc12,,"inconclusive: 28.2 µM [inhibitor, single point]"
Cc1c(C(=O)N2CCCC2)oc2c1-c1nn(CC(=O)NCc3ccc(OC(C)C)cc3)cc1CC2,,"inconclusive: 1.78 µM [inhibitor, full curve, poor fit]"
CN1C(=O)Cc2cc(-c3csc(NC4CCCC4)n3)ccc21,inactive: -7.77%,
CC(C)Oc1ccc(C(=O)Nc2ccc3oc(=O)ccc3c2)cc1,,"inconclusive: 35.5 µM [inhibitor, single point]"
O=C(NCc1cc(F)ccc1F)c1csc(N2CCN(c3ccccc3F)CC2)n1,,"inconclusive: 35.5 µM [inhibitor, partial curve, poor fit]"
Cc1cc(I)c2[nH]c(-c3ccccc3)c(-c3ccccc3)c2c1,,"inconclusive: 31.6 µM [inhibitor, single point]"
CCC1=C(C(=O)OC)C(c2ccc(C)cc2C)N2C(CC(=O)N3CCOCC3)=CSC2=N1 (configuration not stated),,"inconclusive: 25.1 µM [inhibitor, partial curve, poor fit]"
COc1cc(NC(=O)c2cccnc2)c(Cl)cc1NC(=O)c1ccc(Cl)cc1,,"inconclusive: 35.5 µM [inhibitor, partial curve, poor fit]"
COCCCNC(=O)c1ccccc1-c1ncc(-c2ccccc2F)o1,,"inconclusive: 28.2 µM [inhibitor, partial curve, poor fit]"
CCN(CC)c1nc2ccccc2nc1C(=O)Nc1cc(C)cc(C)c1,inactive: -2.8%,
CC(=O)N(c1nc(C)c(C(=O)Nc2ccc3cc[nH]c3c2)s1)C1CCCC1,,"inconclusive: 39.8 µM [inhibitor, single point]"

# — PubChem BioAssay AID1347165 (National Center for Advancing Translational Sciences (NCATS), 2019)
